Laboratory results reported in PubChem BioAssay AID686979 (National Center for Advancing Translational Sciences (NCATS), 2013).
About 50,000 (12%) of roughly 420,000 compounds were called active. Inconclusive means that the source gave no clear call. Such entries were picked first, then a sample of the others. The call rests on the fitted dose curve; in most records, active means well fitted inhibition curve with a large enough effect; inconclusive means small, poorly fitted or top-dose-only effect; inactive means flat fitted curve, though single readings scatter. Potencies of inconclusive entries are left out as doubtful fits.
On the % scale 0 is the no-effect control and ±100 the full control effect; potency means the concentration at half of the fitted maximal effect; tags describe the fitted curve by direction and shape.

Experiment: qHTS for Inhibitors of human tyrosyl-DNA phosphodiesterase 1 (TDP1): qHTS in cells in presence of CPT; further: nearly all actives have a fitted effect of over 55% in size
Details: chicken DT40 Tdp1-/-;hTDP1 cells + 20 nM CPT, ATP luminescence, 48 h; activity change, negative = growth inhibition: at 46.2 µM (top of the series) unless noted
How it was run: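 Cell growth measured by CellTiter-Glo luminescence after a minimum 48 h, 37 C compound exposure with 20 nM CPT in Tdp1-knockout DT40 cells stably expressing hTDP1, seeded 400/well; qHTS titration format.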
For `O=C(CNC(=S)N(Cc1ccccc1F)C1CCCCC1)NCC1CCCO1` (stereo not drawn), the Potency was inconclusive [inhibitor, single point].
For `CC(=O)Nc1ccc(NC(=O)CSc2ccc(-c3ccc(-n4ccnc4)cc3)nn2)cc1`, the activity change, negative = growth inhibition was inconclusive: -32.8% [inhibitor].
For `O=C(O)C1CCC(Cn2c(SCc3cc(=O)n4cc(Br)ccc4n3)nc3ccsc3c2=O)CC1` (stereo not drawn), the Potency was inconclusive [inhibitor, partial curve].
In the case of `CCOC(=O)c1scc(-c2ccc(C)cc2)c1S(=O)(=O)Nc1cc(Cl)ccc1OC`, the Potency is reported as active: 5.8 µM.
With `C[C@H](CO)N1C[C@H](C)[C@@H](CN(C)S(=O)(=O)c2ccc(F)cc2)Oc2ccc(NC(=O)C3CCCCC3)cc2C1=O` the Potency was inconclusive [inhibitor, single point].
For `CN(C)CCNC(=O)c1cccc(-c2cnc3c(NC=O)cc(-c4cccc(F)c4)cn23)c1`, the Potency was inconclusive [inhibitor, single point].
In the case of `COc1cc2[nH]c(=S)n(Cc3ccc(C)cc3)c(=O)c2cc1OC`, the Potency is reported as inconclusive [inhibitor, partial curve].
In the case of `COc1ccc(C=C(c2nc3ccccc3s2)c2nc3ccccc3s2)cc1O`, the Potency is reported as inconclusive [inhibitor, single point].
In the case of `CCOC(=O)c1c(NC(=O)CC2Sc3ccc(C(F)(F)F)cc3NC2=O)sc(C)c1C` (stereo not drawn), the activity change, negative = growth inhibition is reported as inconclusive: -37.5% [inhibitor].
For `CC(C)Cn1nc(NS(=O)(=O)c2cccc3nonc23)c2cc3ccccc3nc21`, the Potency was “inactive”.
With `Cc1ccccc1Nc1nnc(SCC(=O)c2c(N)n(C3CC3)c(=O)[nH]c2=O)s1` the Potency was “inactive”.
In the case of `S=c1[nH]c2cc(-c3ccccc3)ccc2o1`, the Potency is reported as “inactive”.
In the case of `CN(CCCN(Cc1ccc(Cl)cc1)c1ccc(Br)cn1)C(=S)NCCCc1cnc[nH]1`, the Potency is reported as active: 12.6 µM.
For `CCCCn1cc(S(=O)(=O)c2ccc(OC)cc2)c(=O)c2cc(F)c(F)cc21`, the Potency was active: 18.4 µM.
For `c1ccc(Cn2nnc3c(Nc4ccc5c(c4)OCO5)nc(C4CC4)nc32)cc1`, the Potency was inconclusive [inhibitor, single point].
For `CC(NCC(=O)Nc1cc(S(=O)(=O)N2CCOCC2)ccc1Cl)c1ccc(Cl)cc1Cl` (stereo not drawn), the Potency was inconclusive [inhibitor, single point].
With `O=[N+]([O-])c1cccc(NNS(=O)(=O)c2ccccc2F)c1` the Potency was inconclusive [inhibitor, single point].
For `COc1ccc(-c2nn(-c3ccccc3C)cc2CNCc2cccnc2)cc1F`, the Potency was inconclusive [inhibitor, single point].
In the case of `C[C@@H]1C=CC(=O)O[C@@H]1c1ccc(Cl)cc1`, the Potency is reported as active: 7.31 µM.
For `CC(C)Cn1nc(NC(=O)c2ccco2)c2cc3ccccc3nc21`, the Potency was active: 14.6 µM.
For `COc1cc(C(=O)C(O)c2ccc(O)c(OC)c2)ccc1O` (stereo not drawn), the Potency was “inactive”.
With `O=C(Nc1ccc2oc(-c3cccnc3)nc2c1)c1ccc(Br)o1` the Potency was inconclusive [inhibitor, partial curve].
With `Cc1cccc(C)c1-c1ccc(CN2C(CC(C)C)C(=O)N(Cc3cn(CCO)nn3)CCS2(=O)=O)cc1` (stereo not drawn) the Potency was inconclusive [inhibitor, single point].
With `COc1ccc(N2CCCn3c2nc2c3c(=O)n(Cc3ccc(F)cc3)c(=O)n2C)c(OC)c1` the Potency was inconclusive [inhibitor, partial curve, poor fit].
For `Cc1ccnc(N2CCCC(C(=O)Nc3ccc(C)c(C)c3)C2)n1` (stereo not drawn), the Potency was active: 9.2 µM.
For `COc1ccc(C2c3[nH]c4ccccc4c3CCN2Cc2cccn2-c2ncccn2)cc1C` (stereo not drawn), the Potency was active: 14.6 µM.
For `CCN(CC)C(=O)c1sc2c(c1C)c(=O)n(-c1ccccc1)c(=O)n2Cc1cc(=O)n2ccccc2n1`, the Potency was inconclusive [inhibitor, partial curve, poor fit].
With `COC(=O)[C@@H]1CCCN1C(=O)c1cc(NC(=O)c2ccccc2)cc2ncn(C3CCCC3)c12` the Potency was “inactive”.
For `COc1ccc(CCNC(=O)c2cc(-c3ccc4c(c3)OCO4)on2)cc1OC`, the Potency was “inactive”.
For `CCn1ncc([N+](=O)[O-])c1C(=O)N1CCc2ccccc2C1`, the Potency was “inactive”.
In the case of `CC1(C)Cc2c(C#N)c(SCCC#N)nc(N3CCOCC3)c2CS1`, the Potency is reported as inconclusive [inhibitor, single point].
For `CC(C)NC(=O)N1CC[C@@]2(CCCN(C(=O)Oc3ccccc3)C2)C1`, the Potency was “inactive”.
For `COc1ccc(C2=Nn3c(nc4sc(C(=O)Nc5cccc(C)c5)c(C)c4c3=O)SC2)cc1`, the Potency was inconclusive [inhibitor, single point].
In the case of `CCOc1ccc(-c2c(C#N)c(N)nc3c2c(=O)n(C)c(=O)n3C)cc1OC`, the Potency is reported as “inactive”.
For `COc1ccc(NC(=O)c2ccc3c(c2)c(C)c(C)n3Cc2ccc(F)cc2)c(OC)c1`, the Potency was active: 18.4 µM.
For `Cc1cc(C(=O)CSc2nc(N)cc(N)n2)c(C)n1CC1CCCO1` (stereo not drawn), the Potency was inconclusive [inhibitor, single point].
In the case of `O=[N+]([O-])c1cccc(Cl)c1NCCNc1ncc(C(F)(F)F)cc1Cl`, the Potency is reported as inconclusive [inhibitor, single point].
For `Cc1cccc(Nc2ccccc2C(=O)OCC(=O)N(C)C2CCS(=O)(=O)C2)c1C` (stereo not drawn), the Potency was inconclusive [inhibitor, single point].
With `Cc1cccc(Oc2ncnc3oc(-c4ccccc4)cc23)c1C` the Potency was inconclusive [inhibitor, single point].
In the case of `CCO[C@H]1OC(C(=O)NCc2nc3ccccc3[nH]2)=C[C@@H](C)[C@@H]1CCCO`, the Potency is reported as inconclusive [inhibitor, single point].
With `CC1S/C(=N/N=C2CCC(C(C)(C)C)CC2)NC1=O` (stereo not drawn) the Potency was inconclusive [inhibitor, single point].
In the case of `O=[N+]([O-])c1cccc(/C=C2\CCc3cnn(C4CCS(=O)(=O)C4)c32)c1` (stereo not drawn), the Potency is reported as inconclusive [inhibitor, single point].
For `CCCNC(=O)COC(=O)CCC(=O)c1cccs1`, the Potency was inconclusive [inhibitor, single point].
For `COc1ccc(NC(=O)c2cc3c([nH]c2=O)CC(c2ccccc2)CC3=O)cc1` (stereo not drawn), the Potency was “inactive”.
For `Cc1ccc(OCCCn2ccnc2)c(Br)c1`, the Potency was “inactive”.
In the case of `Cc1ccc(-c2sc(C(=O)NN)c(C)c2C#N)cc1`, the Potency is reported as inconclusive [inhibitor, single point].
With `CCc1ccc(OCC(=O)N(Cc2ccco2)Cc2ccco2)cc1` the Potency was inconclusive [inhibitor, single point].
With `CCOc1ccc(S(=O)(=O)NCc2ccccc2)cc1C(N)=O` the Potency was inconclusive [inhibitor, single point].
For `COc1ccc2c(c1)[nH]c1c(=O)n(/N=C/c3ccc(OC)c(COc4ccccn4)c3)cnc12`, the Potency was “inactive”.
With `O=C(CSc1ncn(-c2ccccc2)n1)Nc1nc2c(s1)CCCC2` the Potency was inconclusive [inhibitor, single point].
With `CC(=O)Cn1c(CN2CC(C)CC(C)C2)nc2c1c(=O)n(C)c(=O)n2C` (stereo not drawn) the Potency was inconclusive [inhibitor, single point].
With `Cc1cccnc1NC(=O)C(C)N1C(=O)c2ccccc2C1=O` (stereo not drawn) the Potency was “inactive”.
With `Cc1ccc(NC(=O)C(OC(=O)c2cc(C)oc2C)c2ccccc2)cc1` (stereo not drawn) the Potency was “inactive”.
With `COc1ccc(OC)c(N(CC(=O)NCCSCc2ccco2)S(=O)(=O)c2ccccc2)c1` the Potency was inconclusive [inhibitor, single point].
For `CC(C)Oc1ccc(CNC(=S)N/N=C/c2cccnc2)cc1`, the Potency was inconclusive [inhibitor, single point].
In the case of `COc1ccc2c(c1OC)C(=O)OC2N1C(=O)CC[C@H]1C(=O)Nc1ccc2c(c1)OCO2` (stereo partly drawn), the Potency is reported as “inactive”.
For `Cc1ccc(NC(=O)COC(=O)C2(CC(=O)NC(C)(C)C)CCCC2)cc1C`, the Potency was inconclusive [inhibitor, single point].
For `COCC(C)N1C(=O)Cc2c1nc(N)c1c(N)nc(N3CCN(c4ccccc4F)CC3)c(C#N)c21` (stereo not drawn), the Potency was inconclusive [inhibitor, single point].
For `CCC(C(=O)Oc1c(C(C)C)cccc1C(C)C)c1ccccc1` (stereo not drawn), the Potency was “inactive”.
With `N#C/C(=C\c1ccc(Sc2nc3ccccc3[nH]2)o1)c1ccccc1` the Potency was inconclusive [inhibitor, single point].
With `COc1ccc2oc(C(=O)Nc3nc(-c4ccccn4)cs3)c(C)c2c1` the Potency was active: 5.8 µM.
With `CCOc1ccccc1CN1CCC(Oc2ccc(C(=O)NCc3ccccn3)cc2)CC1` the Potency was inconclusive [inhibitor, single point].
In the case of `O=C(C1CCN(c2nc3ccccc3[nH]2)CC1)N1CCN(c2ccccc2)CC1`, the Potency is reported as inconclusive [inhibitor, single point].
In the case of `CC(=O)N1CCN(c2ccc(NC(=O)c3ccc4c(c3)OCO4)cc2)CC1`, the Potency is reported as “inactive”.
With `CCOC(=O)C1(Cc2cccc(F)c2)CCN(Cc2cnn(CC)c2C)CC1` the Potency was inconclusive [inhibitor, partial curve].
In the case of `COc1cc(NC(=O)c2ccco2)c(OC)cc1NC(=O)CSc1ncc(-c2ccc(F)cc2)[nH]1`, the Potency is reported as inconclusive [inhibitor, single point].
In the case of `COc1ccccc1NC(=O)CCn1nc(-c2ccccc2)c2ccccc2c1=O`, the Potency is reported as inconclusive [inhibitor, single point].
In the case of `Cc1cccc(NC(=S)NCc2ccccc2Cl)c1C`, the Potency is reported as inconclusive [inhibitor, single point].
